In PubChem BioAssay (NCATS):
The shares of active, inactive and inconclusive entries below differ from those in the screen. Potencies beside an inconclusive call are fits to weak or partial responses and may not hold up. Activity calls are given as the source filed them. Unless noted, calls follow the shape of the dose curve; as a rule, active = well fitted inhibition curve with a large enough effect; inconclusive = small, poorly fitted or top-dose-only effect; inactive = no such curve, though single readings can be large or run the other way.

What was measured:
[1] = biological target: Aldehyde dehydrogenase, mitochondrial (Homo sapiens) (UniProt P05091); assay: qHTS for Inhibitors of the Aldehyde Dehydrogenase Family (ALDH2) Confirmatory screens (AID 2061303; active = well fitted inhibition curve with a large enough effect; inconclusive = small, poorly fitted or top-dose-only effect; inactive = no such curve, though single readings can be large or run the other way; title and protocol of this record describe different tests; also: nearly all actives have a fitted effect of over 45% in size); conditions: ALDH inhibition qHTS; activity change, negative = inhibition: at 45.4 µM (top of the series)
[2] = qHTS for Inhibitors of the Aldehyde Dehydrogenase Family (ALDH1A2, ALDH1A3, ALDH2, ALDH3A1) (AID 2061307); conditions: ALDH inhibition qHTS; activity change, negative = inhibition: at 50.3 µM (top of the series) unless noted; also: nearly all actives have a fitted effect of over 50% in size; as to Potency: test system not described further here
[3] = biological target: Retinaldehyde dehydrogenase 3 (Homo sapiens) (UniProt P47895); assay: qHTS for Inhibitors of the Aldehyde Dehydrogenase Family (ALDH1A3) Confirmatory screens (AID 2061311); conditions: activity change, negative = inhibition: at 46 µM (top of the series); also: nearly all actives have a fitted effect of over 60% in size
[4] = biological target: Retinal dehydrogenase 2 (Homo sapiens) (UniProt O94788); assay: qHTS for Inhibitors of the Aldehyde Dehydrogenase Family (ALDH1A2) Confirmation screens (AID 2061314); conditions: activity, negative = inhibition: at 45.9 µM (top of the series) unless noted; also: nearly all actives have a fitted effect of over 65% in size
[5] = biological target: Aldehyde dehydrogenase 1A1 (Homo sapiens) (UniProt P00352); assay: qHTS for Inhibitors of the Aldehyde Dehydrogenase Family (ALDH1A1) Confirmatory screens (AID 2061316); conditions: activity change, negative = inhibition: at 47.3 µM (top of the series); also: nearly all actives have a fitted effect of over 65% in size
[6] = biological target: Retinaldehyde dehydrogenase 3 (Homo sapiens) (UniProt P47895); assay: qHTS for Inhibitors of the Aldehyde Dehydrogenase Family (ALDH1A3) Primary screen (AID 2061315); conditions: ALDH inhibition qHTS; activity change, negative = inhibition: at 56 µM (top of the series) unless noted
Potency is read from the fitted curve at half-maximal effect; tags tell the direction and shape of the fitted curve.

Row | SMILES | Potency [1] | Potency [2] | Potency [3] | Potency [4] | Potency [5] | Potency [6]
1 | COc1ccc(C2Nc3ccccc3C(=O)N2Cc2ccccn2)cc1COc1ccc(NC(C)=O)cc1 (configuration not stated) | inconclusive: 7.08 µM [inhibitor, partial curve, poor fit] | active: 6.31 µM | inconclusive: 15.9 µM [inhibitor, partial curve] | inconclusive: 3.16 µM [inhibitor, full curve, poor fit] | inconclusive: 12.7 µM [inhibitor, partial curve] | 
2 | COc1c2c(c(C)c3c1C(=O)OC3)OC1(C)CC(O)C34OC(OC)(CC(O)C3(C)C1C2)OC4(C)C (configuration not stated) | inconclusive: 6.93 µM [inhibitor, partial curve] | inactive | inconclusive: 12.3 µM [inhibitor, partial curve, poor fit] | inconclusive: 9.79 µM [inhibitor, partial curve] | inconclusive: 9.79 µM [inhibitor, partial curve] | 
3 | Cc1ccc(-c2cc(C(=O)N3CCCCC3)c3ccccc3n2)cc1C | inactive | inactive | inactive | inactive | inactive | 
4 | Cc1ccc(CNc2cccc(N3CCCCC3)c2)cc1 | inconclusive: 14.2 µM [inhibitor, partial curve] | inconclusive: 14.2 µM [inhibitor, partial curve] | active: 22.5 µM | inconclusive: 12.7 µM [inhibitor, partial curve] | inconclusive: 11.3 µM [inhibitor, partial curve] | 
5 | CCOC(=O)c1ccc(-n2cccc2/C=C2\NC(=O)NC2=O)cc1 | inconclusive: 20 µM [inhibitor, partial curve, poor fit] | inactive | inconclusive: 31.8 µM [inhibitor, single point] | inconclusive: 11.3 µM [inhibitor, partial curve] | inconclusive: 14.2 µM [inhibitor, partial curve, poor fit] | 
6 | COc1cncc(NC(=O)c2cccs2)c1 | inconclusive: 2.52 µM [inhibitor, full curve, poor fit] | inconclusive: 11.3 µM [inhibitor, partial curve] | active: 11.3 µM | inconclusive: 14.2 µM [inhibitor, partial curve] | inconclusive: 11.3 µM [inhibitor, partial curve] | inconclusive: 12.6 µM [inhibitor, partial curve, poor fit]
7 | Oc1cc(Nc2cccnc2)cc2cccnc12 | inactive | inactive | active: 0.283 µM | inactive | inconclusive: 35.7 µM [inhibitor, partial curve, poor fit] | inconclusive: 7.08 µM [inhibitor, full curve]
8 | COc1ccc(C2Nc3ccccc3C(=O)N2Cc2cccc(C(F)(F)F)c2)cc1COc1ccc(NC(C)=O)cc1 (configuration not stated) | active: 11.2 µM | active: 4 µM | active: 10 µM | inconclusive: 14.2 µM [inhibitor, partial curve, poor fit] | inconclusive: 22.5 µM [inhibitor, single point] | 
9 | O=C(O)c1ccc(O)c2ncc(-c3ccc(C(=O)N4CCNCC4)cc3)cc12 | inconclusive: 15.9 µM [inhibitor, partial curve, poor fit] | inactive | inconclusive: 15.9 µM [inhibitor, partial curve, poor fit] | inconclusive: 0.126 µM [inhibitor, full curve, poor fit] | inactive | 
10 | Cc1ccnc(NC(=S)N[C@@H]2CCN(c3cccc(C(F)(F)F)c3)C2)c1 | inconclusive: 17.9 µM [inhibitor, partial curve] | inconclusive: 22.5 µM [inhibitor, partial curve] | inactive | inconclusive: 15.9 µM [inhibitor, partial curve] | inconclusive: 22.5 µM [inhibitor, single point] | 
11 | Cc1cc(N[S+](=O)([O-])c2cc3c(cc2Cl)NC(=O)CO3)ccc1Br | inconclusive: 12.7 µM [inhibitor, partial curve] | inconclusive: 22.5 µM [inhibitor, partial curve] | inconclusive: 14.2 µM [inhibitor, partial curve] | inconclusive: 11.3 µM [inhibitor, partial curve] | inconclusive: 22.5 µM [inhibitor, partial curve, poor fit] | 
